According to paper PMC5892938:
The other results are listed elsewhere or left out. At the low end of the ranking, values are background and their order means little.

The sequences below were run against GST-SBP-SLBP (stem-loop binding protein) (UniProt Q14493) (assay: targeted RNA Bind-n-Seq). Details: RBNS binding buffer: 25 mM Tris pH 7.5, 150 mM KCl, 3 mM MgCl2, 0.1% Tween, 0.5 mg/mL BSA, 1 mM DTT; 27 nM protein, 750 pM RNA pool; temperature not stated; high values mean tight binding.
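Further: DESeq read counts versus GST-SBP nonspecific binding control pulldown.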

Row | Sequence | binding signal (log2 fold change)
1 | GGUCACGUCUCAAUCAACUCUAUUCCAGGAGUUUCCUCCUGUUUUCUCAACAGCUCGCAGUCAAG | 0.0762
2 | GGUCACGUCUCAAUCAACUCAACGCCAGGAGUUUCCUCCUGUUUUCUCAACAGCUCGCAGUCAAG | 0.171
3 | GGUCACGUCUCAAUCAACUCAAUUUCAGGAGUUUGCUCCUGUUUUUUCAACAGCUCGCAGUCAAG | 0.18
4 | GGUCACGUCUCAAUCAACUCAGUCCCCAGGGAAACCCCUGGCAAAUUCAACAGCUCGCAGUCAAG | 0.0713
5 | GGUCACGUCUCAAUCAACUCAAUCCCAGGAGUUUUCUCCUGUAUUCUCAACAGCUCGCAGUCAAG | -0.00559
6 | GGUCACGUCUCAAUCAACUCUCUCGAGGGGGGGAAAACCCCUUUGCCCUCAAAAUCAACAGCUCGCAGUCAAG | 0.354
7 | GGUCACGUCUCAAUCAACUCAACUCCCAGGGAAAACCCUGGCUUACUCAACAGCUCGCAGUCAAG | 0.0456
8 | GGUCACGUCUCAAUCAACUCAUCCCCAGGAGUUUUCUCCUGUAUUCUCAACAGCUCGCAGUCAAG | 0.115
9 | GGUCACGUCUCAAUCAACUCUUCCUCAGGAGUUUUCUCCUGCUUUUUCAACAGCUCGCAGUCAAG | 0.0635
10 | GGUCACGUCUCAAUCAACUCUAAAGAGGGGGGGAAAACCCCUUUGCCCUCCAUGUCAACAGCUCGCAGUCAAG | -0.16
11 | GGUCACGUCUCAAUCAACUCUACUCCCAGGGAAAACCCUGGUAUAUUCAACAGCUCGCAGUCAAG | -0.0733
12 | GGUCACGUCUCAAUCAACUCUUCUUCAGGAGUUUACUCCUGCAUAUUCAACAGCUCGCAGUCAAG | 0.184
13 | GGUCACGUCUCAAUCAACUCACCCGAGGGGGGGAAAACCCCUUUACCCUCACAUUCAACAGCUCGCAGUCAAG | -0.27
14 | GGUCACGUCUCAAUCAACUCUACUUCCAGGGAAAACCCUGGCAUAUUCAACAGCUCGCAGUCAAG | 0.0931
15 | GGUCACGUCUCAAUCAACUCUAUCUCAGGAGUUUACUCCUGCAUUUUCAACAGCUCGCAGUCAAG | -0.0648
16 | GGUCACGUCUCAAUCAACUCUCCAGAGGGGGGGAAAACCCCUUUACCCUCCAUCUCAACAGCUCGCAGUCAAG | -0.112
17 | GGUCACGUCUCAAUCAACUCUAUAGAGGGGGGGAAAACCCCUUUACCCUCCAUUUCAACAGCUCGCAGUCAAG | -0.257
18 | GGUCACGUCUCAAUCAACUCAUUUUCAGGAGUUUUCUCCUGUUUAUUCAACAGCUCGCAGUCAAG | 0.153
19 | GGUCACGUCUCAAUCAACUCUUAAGAGGGGGGGAAAACCCCUUUACCCUCCAUGUCAACAGCUCGCAGUCAAG | -0.347
20 | GGUCACGUCUCAAUCAACUCCUUCGAGGGGGGGAAAACCCCUUUACCCUCAACUUCAACAGCUCGCAGUCAAG | 0.109
